Test results reported in the supplement of paper PMC12217912.
The list shows a part of the results. The full chains were built here from the parent and the listed change. Inactive controls read about 0.05.

B1: TEV protease; numbered along this chain (parent)
chain: MGESLFKGPRDYNPISSSICHLTNESDGHTTSLYGIGFGPFIITNKHLFRRNNGTLVVQSLHGVFKVKDTTTLQQHLVDGRDMIIIRMPKDFPPFPQKLKFREPQREERICLVTTNFQTKSMSSMVSDTSCTFPSGDGIFWKHWIQTKDGQCGSPLVSTRDGFIVGIHSASNFTNTNNYFTSVPKNFMELLTNQEAQQWVSGWRLNADSVLWGGHKVFMVKPEEPFQPVKEATQL

Variants of: B1
Experiment: raw area under fraction-flipped curve 0-4 h after induction (AUC4h, not background-subtracted), DNA-recorder readout of cleavage of the substrate (dimensionless); higher = more cleavage of the substrate by the protease variant
Conditions: temperature: 34 °C; time window: 0-4 h after rhamnose induction
Experimental: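 In vivo DNA recorder in E. coli TOP10(DE3) ΔrhaA at 34 °C. Each TEVp single-site mutant (parent TEVp 0) is paired with a single-site variant of the 7-mer TEVs (canonical ENLYFQ|S). The substrate sits between flexible linkers in a Bxb1-sfGFP-TEVs-SsrA fusion, so cleavage stabilises Bxb1 and speeds flipping of a recombination array, read by NGS. The value is the raw area under the fraction-flipped curve over 0-4 h after rhamnose induction (AUC4h), with ≥20 reads per time point. It is not background-subtracted; inactive controls average about 0.047.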
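Note: Bxb1 expression induced with 0.2% (w/v) L-rhamnose at OD600 near 0.5, cultures sampled hourly, flipped fraction per protease–substrate barcode pair counted by paired-end Illumina sequencing.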

Variant	area with substrate ENLYAQS	area with substrate ENLYCQS	area with substrate ENLYDQS	area with substrate ENLYEQS	area with substrate ENLYGQS	area with substrate ENLYHQS	area with substrate ENLYIQS	area with substrate ENLYKQS	area with substrate ENLYNQS	area with substrate ENLYQQS	area with substrate ENLYVQS	area with substrate ENLYMQS	area with substrate ENLYPQS	area with substrate ENLYSQS	area with substrate ENLYWQS	area with substrate ENLYYQS	area with substrate ENLYTQS	area with substrate ENLYLQS	area with substrate ENLYRQS
F133C	0.0708	0.0816	0.059	0.0711	0.0725	0.083	0.134	0.0416	0.0688	0.0481	0.124	–	–	–	–	–	–	–	–
Q74R	0.0597	0.0739	0.0626	0.0569	–	0.046	0.0888	0.0732	–	–	–	0.0845	0.0693	0.137	0.0727	–	–	–	–
G37M	0.0614	–	0.054	0.061	0.0599	0.0505	0.114	0.0549	0.0595	–	0.0877	0.0791	0.0647	–	0.0604	0.0569	–	–	–
L73T	0.0506	–	0.062	0.0642	0.058	0.0682	–	0.0498	0.0621	0.0606	0.0828	0.0318	0.0694	0.0671	0.0652	–	0.0578	–	–
L156C	0.0853	0.101	0.0728	0.0572	0.0683	0.0689	–	0.0726	–	0.0509	0.114	–	0.0677	0.077	0.104	–	–	0.116	–
L191M	0.0697	0.0713	0.0613	0.0621	0.0615	0.0672	0.133	0.07	0.0663	–	0.107	0.0814	0.0678	0.0724	–	–	0.119	0.0817	0.0579
D11H	0.0758	–	0.0626	0.0699	0.0652	0.0673	–	0.0537	0.0654	0.0619	0.118	0.0846	0.0773	0.0758	0.0777	0.0834	–	–	0.0715
V210Q	0.124	0.0887	0.0802	0.0833	0.058	0.0653	0.115	0.044	0.0581	0.0635	–	0.078	0.0541	–	0.0675	0.0795	0.0696	–	0.0632
P225D	0.0703	–	0.0603	0.0611	0.0656	0.0554	0.14	0.0618	0.0571	0.0545	–	–	–	0.0917	0.0711	–	0.0819	–	0.081
Q118M	0.0858	0.0686	0.0443	0.0721	0.0755	0.0661	–	–	–	–	–	0.0731	0.0741	0.0636	0.085	0.0563	–	–	–
E25D	0.0691	0.0859	0.0616	0.0462	0.0593	0.0649	0.117	0.0588	0.0668	–	0.111	0.0767	0.063	0.0686	0.0887	–	–	0.113	0.0684
D161S	0.0504	–	–	0.0667	–	–	0.0976	–	0.059	–	–	0.0655	–	–	0.067	–	–	0.0685	0.0571
A196K	0.103	0.0978	0.0709	0.0126	0.0576	0.0617	0.149	0.0564	0.0711	–	0.0934	0.101	0.0725	0.0752	0.0899	0.0648	0.0894	–	0.0347
I43W	0.049	–	0.0412	0.033	–	0.0441	0.0331	0.055	0.026	0.0633	0.0297	0.0616	0.047	0.0537	0.0473	0.0633	0.0368	0.0998	0.025
M122N	0.0756	–	–	0.0647	0.0547	0.0734	–	0.0571	0.0323	0.053	0.112	–	–	–	–	0.0803	0.0822	0.0938	–
K230F	0.0743	–	0.0736	0.063	0.0629	0.0602	–	0.051	0.0686	–	0.0832	0.0884	0.0622	0.0779	–	–	–	–	0.0678
D11Y	0.0669	–	0.0656	0.0706	0.0741	0.0749	0.122	0.0665	0.0699	0.0697	0.0961	0.0709	0.0666	0.0772	0.0799	–	0.0697	–	0.0656
D82G	0.0462	0.0408	0.045	0.048	–	0.0773	–	0.0692	0.0381	0.0649	0.0617	–	0.0595	0.0545	–	–	–	0.0835	–
M188W	0.0797	0.0792	0.0708	0.0866	–	0.0857	0.0901	0.0645	0.0668	0.0403	0.096	0.0778	0.0809	0.076	0.0494	0.0494	0.0694	–	0.0444
K98G	0.0837	0.089	0.0761	0.0566	0.0632	0.0668	0.136	0.0531	0.0734	0.0628	0.102	0.08	0.066	0.0748	0.0699	0.0981	0.0692	–	0.0611
R50E	0.0744	0.0673	0.0643	0.0583	0.0761	0.0678	0.0628	0.0799	0.0665	0.0643	–	0.0608	0.0699	–	0.0667	0.0582	0.0627	–	0.0497
N45R	0.0589	–	0.0613	0.0713	0.0633	0.057	0.0513	0.0361	0.0618	0.0877	0.0577	0.0558	0.0449	0.0653	0.045	–	0.0498	0.0637	0.0654
R10H	0.0811	–	0.0658	0.0689	0.0777	0.0622	0.116	0.0664	–	0.0654	–	0.0854	0.0663	–	0.0892	–	0.066	0.0725	0.0563
L156S	0.0611	0.0518	–	0.0651	0.0609	0.0367	–	–	0.0622	0.0483	0.072	0.0603	–	–	–	0.0728	–	0.0634	0.0525
G39T	0.048	–	0.0534	0.0589	0.0454	0.0508	0.0445	0.0518	0.0475	0.0476	0.0498	0.0609	0.0533	0.0517	–	–	0.0418	0.0376	0.0437
